In US11117930B2, “Peptide inhibitors of transcription factor aggregation” (ADRX, INC., priority 2017, dated 2021):
“And” between values parts separate entries of the source, which are not always exact repeats. Equal entries are not always repeated. At least one peptide structure holds a part that was inferred or is arguable (an end, a ring closure or a residue). At least one structure is not confirmed: it was looked up by name or label, or the drawing left a doubt. Non-standard residues stand in square brackets, D forms with d. Residues, ends and D or L forms follow the SMILES beside them. No end group written: not given here. hArg = N=C(N)NCCCC[C@H](N)C(=O)O

Target: Nat1 (LTIITLE (SEQ ID NO: 225)) (Homo sapiens, UniProt P04637)
Assay: Thioflavin T aggregation assay (Nat1)
Type: biochemical
Settings: ThT fluorescence, 50 μM Nat1, pH6.0, room temperature, 2 hours

Compound: N=C(N)NCCC[C@@H](NC(=O)[C@@H](CCCNC(=N)N)NC(=O)[C@@H](Cc1ccc(O)cc1)NC(=O)[C@@H](Cc1c[nH]c2ccccc12)NC(=O)[C@@H](CCCNC(=N)N)NC(=O)[C@@H](Cc1c[nH]c2ccccc12)NC(=O)[C@H](N)CCCCN)C(=O)O [kwrwyrr] (H-[dK][dW][dR][dW][dY][dR][dR]-OH; N-terminus and C-terminus assumed)
- IC50: 75 nM

Compound: N=C(N)NCCC[C@@H](N)C(=O)N[C@H](Cc1ccccc1)C(=O)N[C@H](Cc1ccc(O)cc1)C(=O)N[C@H](CCCNC(=N)N)C(=O)N[C@H](CCCNC(=N)N)C(=O)N[C@H](Cc1c[nH]cn1)C(=O)N[C@H](CCCNC(=N)N)C(=O)O [rfyrrhr] (H-[dR][dF][dY][dR][dR][dH][dR]-OH; N-terminus and C-terminus assumed)
- IC50: 81 nM

Compound: N=C(N)NCCC[C@@H](NC(=O)[C@@H](Cc1c[nH]cn1)NC(=O)[C@@H](Cc1c[nH]cn1)NC(=O)[C@@H](Cc1ccccc1)NC(=O)[C@@H](CCCNC(=N)N)NC(=O)[C@@H](Cc1ccccc1)NC(=O)[C@H](N)Cc1ccccc1)C(=O)O [ffrfhhr] (H-[dF][dF][dR][dF][dH][dH][dR]-OH; N-terminus and C-terminus assumed)
- IC50: 151 nM

Compound: N=C(N)NCCC[C@@H](NC(=O)[C@@H](Cc1c[nH]c2ccccc12)NC(=O)[C@@H](Cc1ccccc1)NC(=O)[C@@H](Cc1ccc(O)cc1)NC(=O)[C@@H](Cc1ccc(O)cc1)NC(=O)[C@@H](CCC(N)=O)NC(=O)[C@H](N)Cc1ccc(O)cc1)C(=O)O [yqyyfwr] (H-[dY][dQ][dY][dY][dF][dW][dR]-OH; N-terminus and C-terminus assumed)
- IC50: 181 nM

Compound: N=C(N)NCCC[C@@H](N)C(=O)N[C@H](CCC(N)=O)C(=O)N[C@H](Cc1c[nH]c2ccccc12)C(=O)N[C@H](Cc1ccc(O)cc1)C(=O)N[C@H](CCCNC(=N)N)C(=O)N[C@H](Cc1c[nH]c2ccccc12)C(=O)N[C@H](CCC(N)=O)C(=O)O [rqwyrwq] (H-[dR][dQ][dW][dY][dR][dW][dQ]-OH; N-terminus and C-terminus assumed)
- IC50: 2720 nM

Compound: CC(C)C[C@@H](NC(=O)[C@@H](Cc1c[nH]c2ccccc12)NC(=O)[C@@H](CCCNC(=N)N)NC(=O)[C@@H](Cc1c[nH]c2ccccc12)NC(=O)[C@H](N)Cc1c[nH]cn1)C(=O)N[C@H](CCCNC(=N)N)C(=O)N[C@H](CCCNC(=N)N)C(=O)O [hwrwlrr] (H-[dH][dW][dR][dW][dL][dR][dR]-OH; N-terminus and C-terminus assumed)
- IC50: 43 nM

Compound: LYIRYLR [LYIRYLR]
- IC50: 70 nM

Compound: LFIYYQR [LFIYYQR]
- IC50: 440 nM

Compound: LLIKYHA [LLIKYHA]
- IC50: 234 nM

Compound: LTRILWH [LTRILWH]
- IC50: 16200 nM

Compound: YYIRYYK [YYIRYYK]
- IC50: 494 nM

Compound: WTRIYYH [WTRIYYH]
- IC50: 420 nM

Compound: AYYYRHR [AYYYRHR]
- IC50: 2120 nM

Compound: WTIRYYK [WTIRYYK]
- IC50: 203 nM

Compound: N=C(N)NCCC[C@@H](N)C(=O)N[C@H](Cc1c[nH]c2ccccc12)C(=O)N[C@H](CCCNC(=N)N)C(=O)N[C@H](Cc1c[nH]c2ccccc12)C(=O)N[C@H](Cc1c[nH]cn1)C(=O)N[C@H](Cc1c[nH]cn1)C(=O)N[C@H](CCCNC(=N)N)C(=O)O [rwrwhhr] (H-[dR][dW][dR][dW][dH][dH][dR]-OH; N-terminus and C-terminus assumed)
- IC50: 156 nM

Compound: IRIRRAA [IRIRRAA]
- IC50: 248 nM

Compound: IRIRHYR [IRIRHYR]
- IC50: 14 nM

Compound: LLIKYHR [LLIKYHR]
- IC50: 248 nM and 489 nM

Compound: LYIRLTH [LYIRLTH]
- IC50: 192 nM

Compound: IRIRAYR [IRIRAYR]
- IC50: 23 nM

Compound: N=C(N)NCCC[C@@H](NC(=O)[C@@H](CCC(N)=O)NC(=O)[C@@H](Cc1ccc(O)cc1)NC(=O)[C@@H](CCC(N)=O)NC(=O)[C@@H](Cc1c[nH]c2ccccc12)NC(=O)[C@@H](CCC(N)=O)NC(=O)[C@H](N)Cc1ccc(O)cc1)C(=O)O [yqwqyqr] (H-[dY][dQ][dW][dQ][dY][dQ][dR]-OH; N-terminus and C-terminus assumed)
- IC50: 354 nM

Compound: CC(C)C[C@@H](NC(=O)[C@H](N)CCCCN)C(=O)N[C@H](CCCCN)C(=O)N[C@H](CCCCN)C(=O)N[C@H](CC(C)C)C(=O)N[C@H](Cc1c[nH]cn1)C(=O)O [klkklh] (H-[dK][dL][dK][dK][dL][dH]-OH; N-terminus and C-terminus assumed)
- IC50: 71 nM

Compound: N=C(N)NCCC[C@@H](NC(=O)[C@@H](CCCNC(=N)N)NC(=O)[C@@H](Cc1c[nH]cn1)NC(=O)[C@@H](Cc1c[nH]c2ccccc12)NC(=O)[C@@H](CCCNC(=N)N)NC(=O)[C@@H](Cc1c[nH]c2ccccc12)NC(=O)[C@H](N)Cc1ccccc1)C(=O)O [fwrwhrr] (H-[dF][dW][dR][dW][dH][dR][dR]-OH; N-terminus and C-terminus assumed)
- IC50: 147 nM and 164 nM

Compound: WRIRRYR [WRIRRYR]
- IC50: 514 nM

Compound: IRIRRYE [IRIRRYE]
- IC50: 32800 nM

Compound: N=C(N)NCCC[C@@H](NC(=O)[C@@H](Cc1c[nH]cn1)NC(=O)[C@@H](Cc1c[nH]cn1)NC(=O)[C@@H](CCCNC(=N)N)NC(=O)[C@@H](CCCNC(=N)N)NC(=O)[C@@H](Cc1c[nH]c2ccccc12)NC(=O)[C@H](N)Cc1c[nH]c2ccccc12)C(=O)O [wwrrhhr] (H-[dW][dW][dR][dR][dH][dH][dR]-OH; N-terminus and C-terminus assumed)
- IC50: 247 nM

Compound: CC[C@H](C)[C@H](N)C(=O)N[C@@H](CCCCNC(=N)N)C(=O)N[C@H](C(=O)N[C@@H](CCCCNC(=N)N)C(=O)N[C@@H](CCCNC(=N)N)C(=O)N[C@@H](Cc1ccc(O)cc1)C(=O)N[C@@H](CCCNC(=N)N)C(=O)O)[C@@H](C)CC [Ile-homoArg-Ile-homoArg-Arg-Tyr-Arg] (H-I[hArg]I[hArg]RYR-OH; N-terminus and C-terminus assumed)
- IC50: 30 nM

Compound: LHIEHR [LHIEHR]
- IC50: 657 nM

Compound: N=C(N)NCCC[C@@H](NC(=O)[C@@H](CCCNC(=N)N)NC(=O)[C@@H](Cc1c[nH]cn1)NC(=O)[C@@H](Cc1ccc(O)cc1)NC(=O)[C@@H](CCCNC(=N)N)NC(=O)[C@@H](Cc1c[nH]c2ccccc12)NC(=O)[C@H](N)Cc1c[nH]cn1)C(=O)O [hwryhrr] (H-[dH][dW][dR][dY][dH][dR][dR]-OH; N-terminus and C-terminus assumed)
- IC50: 139 nM

Compound: RFYRYLR [RFYRYLR]
- IC50: 107 nM

Compound: CC[C@@H](C)[C@@H](NC(=O)[C@@H](CCCNC(=N)N)NC(=O)[C@@H](CC(C)C)NC(=O)[C@H](N)Cc1c[nH]cn1)C(=O)N[C@H](Cc1c[nH]c2ccccc12)C(=O)N[C@H](CCCNC(=N)N)C(=O)N[C@H](CC(N)=O)C(=O)O [hlriwrn] (H-[dH][dL][dR][dI][dW][dR][dN]-OH; N-terminus and C-terminus assumed)
- IC50: 97 nM

Compound: LTIMLWH [LTIMLWH]
- IC50: 425 nM

Compound: N=C(N)NCCC[C@@H](N)C(=O)N[C@H](Cc1ccccc1)C(=O)N[C@H](CCC(=O)O)C(=O)N[C@H](Cc1ccccc1)C(=O)N[C@H](CCCNC(=N)N)C(=O)N[C@H](Cc1c[nH]cn1)C(=O)N[C@H](CCCNC(=N)N)C(=O)O [rfefrhr] (H-[dR][dF][dE][dF][dR][dH][dR]-OH; N-terminus and C-terminus assumed)
- IC50: 117 nM

Compound: LRIYHHK [LRIYHHK]
- IC50: 152 nM

Compound: CC(C)C[C@@H](NC(=O)[C@H](N)CCCCN)C(=O)N[C@H](CCCCN)C(=O)N[C@H](Cc1c[nH]c2ccccc12)C(=O)N[C@H](CC(C)C)C(=O)N[C@H](Cc1c[nH]c2ccccc12)C(=O)O [klkwlw] (H-[dK][dL][dK][dW][dL][dW]-OH; N-terminus and C-terminus assumed)
- IC50: 1060 nM

Compound: WYIRLWK [WYIRLWK]
- IC50: 262 nM

Compound: LRIRRYR [LRIRRYR]
- IC50: 76 nM

Compound: LVIRYHR [LVIRYHR]
- IC50: 101 nM

Compound: IRIRRYA [IRIRRYA]
- IC50: 44 nM

Compound: LTRILTH [LTRILTH]
- IC50: 7370 nM

Compound: N=C(N)NCCC[C@@H](NC(=O)[C@@H](Cc1c[nH]c2ccccc12)NC(=O)[C@@H](CCCNC(=N)N)NC(=O)[C@@H](Cc1c[nH]c2ccccc12)NC(=O)[C@@H](CCCNC(=N)N)NC(=O)[C@@H](Cc1c[nH]c2ccccc12)NC(=O)[C@H](N)Cc1c[nH]cn1)C(=O)O [hwrwrwr] (H-[dH][dW][dR][dW][dR][dW][dR]-OH; N-terminus and C-terminus assumed)
- IC50: 245 nM

Compound: CC(C)C[C@@H](NC(=O)[C@H](N)CCCCN)C(=O)N[C@H](CCCCN)C(=O)N[C@H](Cc1c[nH]c2ccccc12)C(=O)N[C@H](C)C(=O)N[C@H](Cc1ccc(O)cc1)C(=O)O [klkway] (H-[dK][dL][dK][dW][dA][dY]-OH; N-terminus and C-terminus assumed)
- IC50: 12600 nM

Compound: IRIRRY [IRIRRY]
- IC50: 205 nM

Compound: CC(C)C[C@@H](NC(=O)[C@H](N)CCCNC(=N)N)C(=O)N[C@H](CCCCN)C(=O)N[C@H](Cc1c[nH]c2ccccc12)C(=O)N[C@H](CCCNC(=N)N)C(=O)N[C@H](Cc1c[nH]c2ccccc12)C(=O)O [rlkwrw] (H-[dR][dL][dK][dW][dR][dW]-OH; N-terminus and C-terminus assumed)
- IC50: 702 nM

Compound: C[C@@H](NC(=O)[C@H](N)Cc1ccccc1)C(=O)N[C@H](CCCNC(=N)N)C(=O)N[C@H](C)C(=O)N[C@H](Cc1c[nH]cn1)C(=O)N[C@H](CCCNC(=N)N)C(=O)N[C@H](CCCNC(=N)N)C(=O)O [farahrr] (H-[dF][dA][dR][dA][dH][dR][dR]-OH; N-terminus and C-terminus assumed)
- IC50: 906 nM

Compound: CSCC[C@@H](NC(=O)[C@@H](Cc1c[nH]c2ccccc12)NC(=O)[C@H](N)CCCNC(=N)N)C(=O)N[C@H](Cc1ccc(O)cc1)C(=O)N[C@H](Cc1c[nH]c2ccccc12)C(=O)N[C@H](CCC(N)=O)C(=O)N[C@H](CCCNC(=N)N)C(=O)O [rwmywqr] (H-[dR][dW][dM][dY][dW][dQ][dR]-OH; N-terminus and C-terminus assumed)
- IC50: 216 nM

Compound: C[C@@H](N)C(=O)N[C@H](Cc1c[nH]c2ccccc12)C(=O)N[C@H](CCCNC(=N)N)C(=O)N[C@H](Cc1c[nH]c2ccccc12)C(=O)N[C@H](Cc1c[nH]cn1)C(=O)N[C@H](CCCNC(=N)N)C(=O)N[C@H](CCCNC(=N)N)C(=O)O [awrwhrr] (H-[dA][dW][dR][dW][dH][dR][dR]-OH; N-terminus and C-terminus assumed)
- IC50: 267 nM

Compound: LTIRLWH [LTIRLWH]
- IC50: 198 nM

Compound: IRVYKYS [IRVYKYS]
- IC50: 480 nM
